Results from PubChem BioAssay AID1768 (National Center for Advancing Translational Sciences (NCATS), 2009).
Screen size: about 270,000 compounds; about 620 (0.23%) were called active. This list was built around the results that the source calls inconclusive (neither active nor inactive); the mix of calls is not that of the screen. The call rests on the fitted dose curve; in most records, active means well fitted inhibition curve with a large enough effect in the polarisation, with a control signal flat (not every such curve was filed as active); inconclusive means small, poorly fitted or top-dose-only effect, or effect the other way, or a change in a side signal; inactive means no such curve, though single readings can be large or run the other way; the % refers to the polarisation. Potencies of inconclusive entries are doubtful fits and often do not repeat. “Side channel” marks fits to a control or component signal instead of the main read-out.

Each compound was assayed against Menin (Homo sapiens) (UniProt O00255) (assay: qHTS Assay for Inhibitors Targeting the Menin-MLL Interaction in MLL Related Leukemias: Competition With Texas Red Labeled MLL-derived Mutant Peptide). Conditions: fluorescence polarization; FP activity change, negative = inhibition: at 61.6 µM (top of the series).
Sequence of UniProt O00255 (O00255 whole entry, looked up): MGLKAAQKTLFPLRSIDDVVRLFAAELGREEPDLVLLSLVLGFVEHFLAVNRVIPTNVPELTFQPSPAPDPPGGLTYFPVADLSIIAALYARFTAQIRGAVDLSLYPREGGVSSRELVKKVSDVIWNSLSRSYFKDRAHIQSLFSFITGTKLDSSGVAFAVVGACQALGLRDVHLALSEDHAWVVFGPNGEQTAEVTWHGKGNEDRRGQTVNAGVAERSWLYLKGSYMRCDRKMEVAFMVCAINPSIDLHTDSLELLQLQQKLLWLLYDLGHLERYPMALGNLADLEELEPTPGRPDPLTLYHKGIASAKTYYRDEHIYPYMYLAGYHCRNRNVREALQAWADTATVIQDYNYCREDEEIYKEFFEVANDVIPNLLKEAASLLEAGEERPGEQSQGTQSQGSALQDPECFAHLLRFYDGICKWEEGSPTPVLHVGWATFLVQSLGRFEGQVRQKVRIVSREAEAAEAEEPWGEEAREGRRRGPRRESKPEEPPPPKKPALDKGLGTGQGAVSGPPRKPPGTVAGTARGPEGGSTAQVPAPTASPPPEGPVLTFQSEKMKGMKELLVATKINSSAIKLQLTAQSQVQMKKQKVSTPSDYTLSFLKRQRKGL
Potency means the concentration at half of the fitted maximal effect; tags describe the fitted curve by direction and shape or compound fluorescence and quenching.
Wherever FP activity change, negative = inhibition is given: % of control where 0% means no effect.

Question: Which Potency does the source give for `O=C(/C=C/c1ccco1)c1ccc(NC(=O)C23CC4CC(CC(C4)C2)C3)cc1` here?
Answer: inconclusive: 12.6 µM [quencher, side channel, partial curve]

Question: For `COc1ccccc1Cn1nc(C(=O)O)c2ccccc2c1=O`, which Potency is on record?
Answer: inconclusive: 35.5 µM [inhibitor, single point]

Question: With `CCOC(=O)c1sc(NC(=O)CSc2n[nH]c(-c3ccccc3)n2)c(C#N)c1C` as the compound, how does the Potency read?
Answer: inconclusive: 22.4 µM [quencher, single point]

Question: Which Potency does the source give for `Cc1cc(=O)oc2cc(OC(C)C(=O)N3CCCc4ccccc43)ccc12` (configuration not stated) here?
Answer: inconclusive: 10 µM [inhibitor, partial curve]

Question: Which Potency does the source give for `CC1CCN(CC(=O)Nc2ccc(N3CCCCCC3)cc2)CC1` here?
Answer: inconclusive: 11.2 µM [inhibitor, partial curve]

Question: With `C=CCn1c(SCC(C)=O)nc2scc(-c3ccco3)c2c1=O` as the compound, how does the Potency read?
Answer: inconclusive: 28.2 µM [quencher, side channel, single point]

Question: With `COc1cc(/C=C2/C(=O)N(c3ccc(Br)cc3)N=C2C)cc([N+](=O)[O-])c1O` as the compound, how does the Potency read?
Answer: inconclusive: 25.1 µM [quencher, side channel, partial curve]

Question: Which Potency does the source give for `O=C(Nc1ccccc1)Nc1cc(Cl)cc(Cl)c1` here?
Answer: inconclusive: 8.91 µM [quencher, side channel, partial curve]

Question: Which Potency does the source give for `CC(C)Oc1ccc(C(CCN)C2CCCCC2)cc1` (configuration not stated) here?
Answer: inconclusive: 2.51 µM [fluorescent, side channel, full curve]

Question: `O=C(NC(NC(=S)Nc1ccc(Cl)cc1Cl)C(Cl)(Cl)Cl)c1cccc([N+](=O)[O-])c1` (configuration not stated) was tested. Which Potency did it give?
Answer: inconclusive: 7.08 µM [quencher, side channel, partial curve]

Question: `Oc1ccc(Nc2nc3ccccc3nc2Nc2ccc(O)cc2)cc1` was tested. Which Potency did it give?
Answer: inconclusive: 12.6 µM [quencher, side channel, partial curve]

Question: How did the “FP activity change, negative = inhibition” value turn out when `Oc1c(N=Nc2ccccn2)ccc2ccccc12` was run?
Answer: inactive: -16.5%

Question: `CN(c1ccccc1)S(=O)(=O)c1ccc(NC(=O)c2ccco2)cc1` was tested. Which Potency did it give?
Answer: inconclusive: 17.8 µM [quencher, side channel, partial curve]

Question: `N#C/C(=C(\O)c1cc(Cl)sc1Cl)c1nc2ccccc2[nH]1` was tested. Which Potency did it give?
Answer: inconclusive: 35.5 µM [inhibitor, single point]

Question: `Cn1c(=O)c2c(nc(NCC3CCCC(CN)C3)n2Cc2ccc(Cl)cc2Cl)n(C)c1=O` (configuration not stated) was tested. Which Potency did it give?
Answer: inconclusive: 3.16 µM [inhibitor, partial curve, poor fit]

Question: With `O=C(NCc1ccc2c(c1)OCO2)O[C@@H]1C(=O)c2cc(Br)ccc2O[C@H]1c1ccc2c(c1)OCO2` as the compound, how does the “FP activity change, negative = inhibition” value read?
Answer: inactive: 37.2%

Question: With `O=c1[nH][nH]c(-c2ccccc2O)c1C(C[N+](=O)[O-])c1ccc(Br)cc1` (configuration not stated) as the compound, how does the Potency read?
Answer: inconclusive: 31.6 µM [quencher, side channel, single point]

Question: With `CSCC[C@H](N)C(=O)N[C@@H](CCC(=O)O)C(=O)N[C@H](C(=O)NCC(=O)N[C@@H](Cc1c[nH]c2ccccc12)C(=O)N[C@@H](Cc1ccc(O)cc1)C(=O)N[C@@H](CCCNC(=N)N)C(=O)N[C@@H](CO)C(=O)N1CCC[C@H]1C(=O)N[C@@H](Cc1ccccc1)C(=O)N[C@@H](CO)C(=O)N[C@@H](CCCNC(=N)N)C(=O)N[C@H](C(=O)N[C@H](C(=O)N[C@@H](Cc1cnc[nH]1)C(=O)N[C@@H](CC(C)C)C(=O)N[C@@H](Cc1ccc(O)cc1)C(=O)N[C@@H](CCCNC(=N)N)C(=O)N[C@@H](CC(N)=O)C(=O)NCC(=O)N[C@@H](CCCCN)C(=O)O)C(C)C)C(C)C)C(C)C` as the compound, how does the “FP activity change, negative = inhibition” value read?
Answer: inactive: -3.56%

Question: How did the Potency turn out when `Cc1ccccc1NC(=O)Cc1nnc(SCC(=O)c2ccc(Br)cc2)n1C` was run?
Answer: inconclusive: 17.8 µM [fluorescent, side channel, partial curve]

Question: Which Potency does the source give for `O=C(Nc1ccc(Cl)c([N+](=O)[O-])c1)c1ccc2c(c1)OCCO2` here?
Answer: inconclusive: 39.8 µM [quencher, side channel, single point]

Question: Which Potency does the source give for `Cc1cc(NC(=O)CCC(=O)N(C2CC2)C2(C(=O)NC3CCCC3)CCC(C)CC2)no1` (configuration not stated) here?
Answer: inconclusive: 44.7 µM [inhibitor, single point]

Question: With `CC1CCCN(CCCNC(=O)CCn2nc(-c3ccccc3)ccc2=O)C1` (configuration not stated) as the compound, how does the Potency read?
Answer: inconclusive: 39.8 µM [inhibitor, single point]

Question: With `COc1cccc(C(c2c(C)[nH]n(-c3ccccc3)c2=O)c2c(C)[nH]n(-c3ccccc3)c2=O)c1OC` as the compound, how does the Potency read?
Answer: inconclusive: 31.6 µM [quencher, side channel, single point]

Question: For `COc1ccc2nc(N/C(=N/S(=O)(=O)c3cccs3)c3ccccc3Cl)sc2c1`, which Potency is on record?
Answer: inconclusive: 14.1 µM [quencher, side channel, partial curve]

Question: Which Potency does the source give for `CCCc1nc2ccccc2c(=O)n1-c1ccc(C(=O)OCC)cc1` here?
Answer: inconclusive: 22.4 µM [fluorescent, side channel, single point]

Question: How did the Potency turn out when `O=C(Cn1c2c(sc1=O)C1c3ccccc3OCC1CS2)Nc1ccc(Cl)c(Cl)c1` (configuration not stated) was run?
Answer: inconclusive: 39.8 µM [inhibitor, single point]

Question: `CCCCN(C)C(=O)C1CCN(CCCc2ccccc2)CC1` was tested. Which Potency did it give?
Answer: inconclusive: 39.8 µM [inhibitor, single point]

Question: Which Potency does the source give for `COCCn1c(=O)c(-c2cccs2)nc2cnc(Nc3ccccc3)nc21` here?
Answer: inconclusive: 3.16 µM [quencher, side channel, full curve]

Question: Which Potency does the source give for `Nc1c(Cl)cc(-c2csc(NCCc3nc4cc(Cl)c(Cl)cc4n3CCCO)n2)cc1Cl` here?
Answer: inconclusive: 20 µM [quencher, side channel, partial curve]

Question: For `Cc1ccccc1C(=O)Nc1ccc2c(C#N)c3nc4ccccc4nc3n2c1`, which Potency is on record?
Answer: inconclusive: 11.2 µM [fluorescent, side channel, partial curve]

Question: How did the Potency turn out when `Cc1oc2ccc(O)c(CN(C)C)c2c1C(=O)c1ccccc1` was run?
Answer: inconclusive: 39.8 µM [quencher, side channel, single point]

Question: `CCOC(=O)Cc1nnc(NC(=O)CSc2ccc(Cl)cc2)s1` was tested. Which Potency did it give?
Answer: inconclusive: 28.2 µM [inhibitor, single point]
